Source: PubChem BioAssay AID886 (National Center for Advancing Translational Sciences (NCATS), 2007)
Several values for one entry are separate records, joined by “and”; a condition that tells them apart may be missing. Equal values may be shown once. In all, about 73,000 compounds went through this assay and about 2,500 (3.4%) were called active. Inconclusive results, whose numbers are uncertain, are shown with a selection of clear calls. Calls follow the shape of the dose curve; as a rule, active = well fitted inhibition curve with a large enough effect; inconclusive = small, poorly fitted or top-dose-only effect; inactive = no such curve, though single readings can be large or run the other way. Potencies beside an inconclusive call are fits to weak or partial responses and may not hold up.
% is scaled to controls: 0 for no effect and ±100 for the full control effect; potency is read from the fitted curve at half-maximal effect; tags tell the direction and shape of the fitted curve.
Also: nearly all actives have a fitted effect of over 60% in size.

The compounds below were run against 3-hydroxyacyl-CoA dehydrogenase type-2 (Homo sapiens) (UniProt Q99714) (assay: qHTS Assay for Inhibitors of HADH2 (Hydroxyacyl-Coenzyme A Dehydrogenase, Type II)). Details: recombinant HADH2, NADH fluorescence, beta-hydroxybutyryl-CoA; activity change, negative = inhibition: at 57.1 µM (top of the series).
Sequence of UniProt Q99714 (Q99714 whole entry, looked up): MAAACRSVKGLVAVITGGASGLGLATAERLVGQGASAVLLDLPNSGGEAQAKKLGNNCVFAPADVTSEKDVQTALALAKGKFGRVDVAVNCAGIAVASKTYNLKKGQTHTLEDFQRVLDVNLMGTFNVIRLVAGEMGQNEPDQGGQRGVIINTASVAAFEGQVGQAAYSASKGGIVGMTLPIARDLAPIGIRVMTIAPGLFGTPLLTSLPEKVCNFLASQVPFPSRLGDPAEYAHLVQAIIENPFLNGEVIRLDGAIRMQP
Sequence of UniProt Q99714 (Q99714 whole entry, looked up): as above
Text: Assay Overview: NIH Molecular Libraries Screening Centers Network [MLSCN] NIH Chemical Genomics Center [NCGC] Structural Genomics Consortium [SGC] Grant Number: None HADH2: Hydroxyacyl-Coenzyme A dehydrogenase, type II, was supplied by researchers at the Structural Genomics Consortium, Oxford University lab (PI Udo Oppermann). The mitochondrial enzyme 17-hydroxysteroid dehydrogenase type 10 (HSD17-10) previously classified as type II hydroxyacyl-CoA dehydrogenase (HADH2) catalyzes the NAD+ dependent oxidation of a variety of substrates including acyl-CoAs, androgens and neurosteroids as well as bile acids(Shafqat N, Marschall HU, Filling C, et al. Biochemical Journal. 2003;376(Pt 1):49-60). The role in neurodegeneration by binding to amyloid-peptide led to its identification (Oppermann UC, et al FEBS Letters. 1999;451(3):238-242 and Yan SD, et al. Nature. 1997;389(6652):689-695), and mutations in its gene appear to be causative for 2-methyl-3-hydroxybutyryl-CoA dehydrogenase deficiency (Ofman R, et al. American Journal of Human Genetics. 2003;72(5):1300-1307). The enzyme was produced by E.coli fermentation as His-tagged recombinant for the purpose of X-ray structure determination, and had been mass-spectrometry characterized. Inhibition of HADH2 activity was screened by utilizing beta-hydroxybutyryl coenzyme A as an electron donor and NAD+ as an electron acceptor/cofactor. An increase in the fluorescence intensity due to conversion of NAD+ to NADH was used to measure the enzyme activity.
Assay Protocol: Buffer: 100 mM Tris-HCl pH 9.0, containing 0.01 % Tween-20. Reagents/Controls: Buffer in columns 3 and 4 as negative control (no enzyme). Substrate/cofactor solution: 1 mM NAD+ and 90 uM beta-hydroxybutyryl coenzyme A (Sigma-Aldrich, St. Louis, MO) final concentrations dispensed throughout the plate. Enzyme: 20 nM HADH2 final concentration in columns 1, 2, 5-48. Column 1 is neutral (100% activity). Column 2 contained titration of apomorphine (Sigma-Aldrich, A 4393, PubChem CID 2215, top concentration 500 uM, then 1:2 dilution in duplicate) Assay Steps: Three uL of enzyme were dispensed to 1536-well Greiner black solid bottom plates. Compounds and controls (23 nL) were transferred via Kalypsys PinTool. The plates were incubated for 15 min at room temperature, and then 1 uL of substrate/cofactor solution was added to start the reaction. The plates were immediately transferred to and read every 30 seconds for 4 min on ViewLux High-throughput CCD imager (Perkin-Elmer) using 360 nm excitation and 450 nm emission fluorescence protocol. The fluorescence intensity difference between the last and the first time points was used to compute reaction progress.
With `COc1ccc(C)cc1NC(=O)CN1CCN(c2ccc(F)cc2)CC1` the Potency was “inactive”. With `Cc1onc(-c2ccccc2)c1C(=O)Nc1cccc2nsnc12` the Potency was inconclusive: 0.794 µM [inhibitor, full curve]. `COc1ccc(-c2cn3c(C)c(C(=O)NC(C)C)sc3n2)cc1` was tested, and the Potency was “inactive”. `CN(C)CCC(=O)c1ccc(Cl)cc1` was tested, and the Potency was inconclusive: 5.01 µM [inhibitor, partial curve]. `CCCCCc1c(C)nc(Nc2ccccc2)[nH]c1=O` was tested, and the Potency was inconclusive: 3.98 µM [inhibitor, single point]. For `OCCCCNc1cccc2ccccc12`, the Potency was active: 31.6 µM. With `CSc1nc(N)nc(SCC(=O)c2ccccc2)c1C#N` the Potency was “inactive”. In the case of `C=C(C)C(=O)OCC1CN2C(CCC(C)C2c2ccc(Br)cc2)C(=O)O1` (configuration not stated), the activity change, negative = inhibition is reported as inactive: 4.64% [at 11.4 µM] and inactive: 0.567% [at 11.4 µM] and inactive: 8.57% [at 11.4 µM]. With `CN(C)c1ccc(-c2nnn(CC(=O)N3c4ccccc4CCc4ccccc43)n2)cc1` the Potency was active: 31.6 µM. For `N#C/C(=C\c1ccc(O)c(O)c1)S(=O)(=O)c1ccccc1`, the Potency was inconclusive: 15.8 µM [inhibitor, partial curve]. With `CC(C(=O)Nc1ccc2c(c1)OCO2)N(c1ccc(Cl)cc1)S(C)(=O)=O` (configuration not stated) the Potency was “inactive”. In the case of `CCOC(=O)N1CCN(S(=O)(=O)c2ccc3[nH]cc(C(=O)O)c(=O)c3c2)CC1`, the Potency is reported as inconclusive: 25.1 µM [inhibitor, single point]. For `CCOCCCn1c(=NC(C)=O)c(C(=O)OCC)cc2c(=O)n3ccccc3nc21`, the Potency was active: 31.6 µM. For `c1ccc(-n2ncc3c(NCc4cccnc4)ncnc32)cc1`, the Potency was inconclusive: 39.8 µM [inhibitor, single point]. In the case of `CCOC(=O)C1CCCN(C(=O)c2ccc3c(=O)n(CCOC)c(=S)[nH]c3c2)C1` (configuration not stated), the Potency is reported as “inactive”. In the case of `COc1ccc(C2C3=C(Nc4ncnn42)c2ccccc2CCC3)cc1` (configuration not stated), the Potency is reported as inconclusive: 31.6 µM [inhibitor, single point]. `O=C1CC(SCc2nc3ccccc3[nH]2)C(=O)N1c1cccc(F)c1` (configuration not stated) was tested, and the Potency was inconclusive: 5.01 µM [inhibitor, partial curve]. In the case of `CC(C)(C)C1=Nn2c(nnc2-c2n[nH]c3c2CCC3)SC1`, the Potency is reported as inconclusive: 39.8 µM [inhibitor, single point]. With `Cc1onc(-c2c(Cl)cccc2Cl)c1C(=O)N[C@H]1C(=O)N2[C@H]1SC(C)(C)[C@H]2C(=O)O` the Potency was “inactive”. `COc1ccc(N2CCN(C(=O)c3ccc(CNc4c(N5CCOCC5)c(=O)c4=O)cc3)CC2)cc1` was tested, and the Potency was “inactive”. In the case of `Cc1cc(-c2ccco2)c(C#N)c2nc3ccccc3n12`, the Potency is reported as “inactive”. For `Cc1ccc(C)c(N2CC(=O)N(c3cc(C)ccc3C)CC2=O)c1`, the Potency was inconclusive: 31.6 µM [inhibitor, single point]. `CCCc1cc(=O)oc2cc(Oc3ncccn3)ccc12` was tested, and the Potency was inconclusive: 39.8 µM [inhibitor, single point]. In the case of `Cc1ccc(S(=O)(=O)c2ccc(Cl)cc2)cc1S(=O)(=O)N1CCOCC1`, the Potency is reported as “inactive”. For `COc1cc(-c2nc(-c3cccc(C)c3)no2)cc(OC)c1OC`, the Potency was inconclusive: 5.01 µM [inhibitor, single point]. For `N#C/C=C1\Sc2ccccc2C(=O)N1CC(=O)N1CCN(S(=O)(=O)c2ccccc2)CC1`, the Potency was inconclusive: 3.16 µM [inhibitor, partial curve]. In the case of `O=C(Nc1nc(-c2cccs2)cs1)c1cccc(S(=O)(=O)N2CCCCC2)c1`, the Potency is reported as inconclusive: 39.8 µM [inhibitor, single point]. For `Cc1[nH]nc2c1-c1nc3ccccc3nc1C(C)(C)C2`, the Potency was active: 31.6 µM. `CCn1c(SCC(=O)Nc2cc(C)on2)nc2c(c1=O)SC(C)C2` (configuration not stated) was tested, and the Potency was inconclusive: 5.01 µM [inhibitor, single point]. For `CCOc1ccc(CC(=O)N2CCN(c3ccc(N4CCOCC4)nn3)CC2)cc1OCC`, the Potency was active: 25.1 µM. `CCNc1ncc2nc(-c3ccccc3)c(=O)n(C[C@H]3CCCO3)c2n1` was tested, and the Potency was inconclusive: 15.8 µM [inhibitor, single point]. With `O=C(Nc1ccc2c(c1)oc1ccccc12)c1ccncc1` the Potency was inconclusive: 39.8 µM [inhibitor, single point]. In the case of `CCc1nc2sc3ccccc3c(=O)c2c(=O)n1Cc1ccco1`, the Potency is reported as inconclusive: 39.8 µM [inhibitor, single point]. In the case of `COc1cc2c(cc1OC)-c1cc(NC3CCCCCC3)nc(=O)n1CC2`, the Potency is reported as inconclusive: 39.8 µM [inhibitor, single point]. With `CCOC(=O)c1c(NC(=O)c2nn(CC)cc2Br)c(C#N)cn1-c1ccccc1` the Potency was inconclusive: 31.6 µM [inhibitor, single point]. For `CCn1c(SCC(=O)C(C)(C)C)nnc1-c1ccccc1OC`, the Potency was “inactive”. In the case of `CCN1c2ccccc2-c2nc3ccccc3n2C1c1cccnc1` (configuration not stated), the Potency is reported as inconclusive: 31.6 µM [inhibitor, single point]. For `O=C(NCN1C(=O)C2C3C=CC(C3)C2C1=O)OC1CCCCC1` (configuration not stated), the Potency was “inactive”. For `Cc1csc(/C(C#N)=N/O)n1`, the Potency was inconclusive: 39.8 µM [inhibitor, single point]. `CCOc1ccccc1Oc1c(C)oc2c(CN3CCN(C)CC3)c(O)ccc2c1=O` was tested, and the Potency was inconclusive: 31.6 µM [inhibitor, single point]. With `C=CCn1c(N)c(C(=O)NCCC2=CCCCC2)sc1=S` the Potency was active: 3.16 µM. In the case of `N[C@H](Cc1cc(I)c(Oc2cc(I)c(O)c(I)c2)c(I)c1)C(=O)O`, the Potency is reported as inconclusive: 15.8 µM [inhibitor, single point]. `CN(C)CCCNc1oc(-c2ccc(Cl)cc2)nc1C#N` was tested, and the Potency was inconclusive: 31.6 µM [inhibitor, single point]. `N=C(N)SCc1cc(Cl)cc(Cl)c1O` was tested, and the activity change, negative = inhibition was inactive: -14.9% [at 11.4 µM]. For `Cn1c(=O)c2c(ncn2CN2CCN(Cn3cnc4c3c(=O)n(C)c(=O)n4C)CC2)n(C)c1=O`, the activity change, negative = inhibition was inactive: 6.81% [at 11.4 µM]. In the case of `O=C1NC(=S)SC1=C1CCCCCC1`, the Potency is reported as active: 25.1 µM. `CCOc1cc(C2C(C(=O)c3ccc(C)o3)=C(O)C(=O)N2CCc2ccccc2)ccc1O` (configuration not stated) was tested, and the Potency was “inactive”.
